Experimental data from PubChem BioAssay AID1721 (National Center for Advancing Translational Sciences (NCATS), 2009).
Screen size: about 290,000 compounds; about 1,100 (0.38%) were called active. The shares of active, inactive and inconclusive entries below differ from those in the screen. Calls follow the shape of the dose curve; as a rule, active = well fitted inhibition curve with a large enough effect; inconclusive = small, poorly fitted or top-dose-only effect, or another doubt; inactive = no such curve, though single readings can be large or run the other way. Potencies of inconclusive entries are doubtful fits and often do not repeat.

target: Pyruvate kinase (Leishmania mexicana) (UniProt Q27686); test: qHTS Assay for Inhibitors of Leishmania Mexicana Pyruvate Kinase (LmPK); conditions: purified LmPK, Kinase-Glo ATP luminescence, 1 h; activity change, negative = inhibition: at 57.5 µM (top of the series) unless noted
Chain of UniProt Q27686 (Q27686 whole entry, looked up): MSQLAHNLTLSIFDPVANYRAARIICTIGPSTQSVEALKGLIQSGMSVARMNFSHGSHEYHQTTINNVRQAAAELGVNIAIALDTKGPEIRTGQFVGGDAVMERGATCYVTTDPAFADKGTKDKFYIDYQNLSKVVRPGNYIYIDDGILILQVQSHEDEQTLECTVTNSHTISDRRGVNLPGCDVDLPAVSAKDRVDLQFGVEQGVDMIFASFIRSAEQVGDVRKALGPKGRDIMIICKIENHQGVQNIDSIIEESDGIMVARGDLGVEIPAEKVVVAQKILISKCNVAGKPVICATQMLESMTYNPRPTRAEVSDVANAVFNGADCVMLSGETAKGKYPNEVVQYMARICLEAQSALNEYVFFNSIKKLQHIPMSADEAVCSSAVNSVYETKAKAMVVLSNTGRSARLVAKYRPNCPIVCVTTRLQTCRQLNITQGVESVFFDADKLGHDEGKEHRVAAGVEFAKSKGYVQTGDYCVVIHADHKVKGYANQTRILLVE
How it was run: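 In 50 mM imidazole pH 7.2 with 7 mM MgCl2, LmPK (0.1 nM) turned over PEP (0.5 mM) and ADP (0.1 mM) for 1 h at room temperature. Luciferase read-out of ATP.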
% is scaled to controls: 0 for no effect and ±100 for the full control effect; potency is read from the fitted curve at half-maximal effect; tags tell the direction and shape of the fitted curve.

Compound	Potency	activity change, negative = inhibition
O=C(/C=C/c1ccc2c(c1)OCO2)Nc1cccnc1	active: 22.4 µM	–
COc1ccc2c(c1OC)C(=O)OC2Nc1nc(-c2cc3ccccc3oc2=O)cs1 (stereo not drawn)	active: 22.4 µM	–
Cn1c(-c2sc3ccccc3c2Cl)n[nH]c1=S	inconclusive: 28.2 µM [falling, single point]	–
COc1cccc(C(=O)Nc2ccc(C(F)(F)F)n(C)c2=O)c1	inconclusive: 14.1 µM [falling, partial curve]	–
CN(CC1CCOCC1)C(=O)CC1C(=O)NCCN1Cc1cccc(C(F)(F)F)c1 (stereo not drawn)	–	inactive: -4.77%
Cn1c(=O)[nH]c(=O)c2c1[nH]c(=S)n2Cc1ccc(Cl)cc1	inconclusive: 14.1 µM [falling, partial curve]	–
O=C(O)c1cccc(C(=O)Cc2ccccc2)c1	inconclusive: 14.1 µM [falling, partial curve]	–
Cc1ccc(C(=O)CSc2ncnc3ccccc23)o1	inconclusive: 17.8 µM [falling, partial curve]	–
CCN(CC)CCNc1cc(C)nc2c1C(=O)C(=O)C=C2N1CCCCC1	inconclusive: 28.2 µM [falling, partial curve, poor fit]	–
CC(C)(C)C(=O)c1cnc(Nc2ccccc2Cl)s1	inconclusive: 31.6 µM [falling, partial curve]	–
CN1CCSc2ccc(C(=O)Nc3cc(F)ccc3F)cc21	inconclusive: 35.5 µM [falling, single point]	–
Cc1ccc([N+](=O)[O-])cc1S(=O)(=O)Nc1ccc(O)c(Sc2ncn[nH]2)c1	inconclusive: 17.8 µM [falling, partial curve]	–
Cc1c(N=C2C=CC(=O)c3ccccc32)c(=O)n(-c2ccccc2)n1C	inconclusive: 35.5 µM [falling, single point]	–
O=C1NC(=S)S/C1=C\c1ccc(SCc2ccco2)o1	inconclusive: 39.8 µM [falling, single point]	–
CCOc1ccc(Nc2nc(-c3sc(N)nc3C)cs2)cc1	–	inactive: -0.853%
CCc1cccc(NC(=O)CSC2=NS(=O)(=O)c3ccccc32)c1	active: 15.8 µM	–
C=CCOc1ccc(C=Nc2ccc(C)c(Cl)c2)c(O)c1	inconclusive: 28.2 µM [falling, single point]	–
C/C(=N\Nc1nc2ccccc2[nH]1)c1ccc([N+](=O)[O-])cc1	inconclusive: 11.2 µM [falling, partial curve]	–
N/C(=N\OC(=O)c1cccs1)c1cccc(Br)c1	active: 15.8 µM	–
O=[N+]([O-])c1ccc(Sc2nnnn2-c2ccccc2)c(Cl)c1	–	inactive: -0.175%
COc1ccc(C(=O)N/N=C(/C)c2ccc(N3CCCCC3)cc2)cc1	–	inactive: -1.53%
O=C(OCC(=O)N1CCOCC1)c1ccccc1Cc1ccccc1	inconclusive: 15.8 µM [falling, partial curve]	–
COc1cc(/C=N/N2C(C)CCCC2C)cc(OC)c1O (stereo not drawn)	active: 2 µM	–
Cc1ccc(C(=O)COC(=O)c2cccs2)cc1	inconclusive: 12.6 µM [falling, partial curve]	–
COc1cccc(N/C=C/C(=O)c2ccc(Cl)cc2)c1	inconclusive: 14.1 µM [falling, partial curve]	–
Cc1ccc(-c2noc(-c3cccs3)n2)cc1	inconclusive: 15.8 µM [falling, partial curve]	–

Compound	Potency	activity change, negative = inhibition
O=C(Nc1ccccc1)C(=O)Nc1cccnc1	active: 14.1 µM	–
COc1ccc(NC(=O)c2cccs2)cc1	inconclusive: 17.8 µM [falling, partial curve]	–
Fc1ccccc1CSc1nc2ccccc2[nH]1	inconclusive: 25.1 µM [falling, single point]	–
Cc1ccc(C(=O)Nc2ncc(C)s2)o1	active: 12.6 µM	–
Cc1ccc(-c2n[nH]c(=S)n2-c2ccccc2)cc1	inconclusive: 7.08 µM [falling, partial curve]	–
Oc1ccc(-c2cn3c(n2)SCC3)cc1O	inconclusive: 39.8 µM [falling, single point]	–
c1ccc(-c2ccc(-c3ccccn3)s2)nc1	inconclusive: 15.8 µM [falling, partial curve]	–
CCc1n[nH]c(=S)n1/N=C/c1c[nH]c2ccc(Br)cc12	inconclusive: 3.16 µM [falling, full curve]	–
Cc1c(NC(=O)C(C)OC(=O)c2ccc([N+](=O)[O-])s2)c(=O)n(-c2ccccc2)n1C (stereo not drawn)	–	inactive: 3.59%
CCOc1ccccc1C(=O)Nc1nnc(CC)s1	–	inactive: -5.03%
Cc1ccc(-n2cc[nH]c2=S)c(C)c1	inconclusive: 28.2 µM [falling, partial curve]	–
N/C(=N\OC(=O)c1ccc([N+](=O)[O-])cc1)c1cccnc1	–	inactive: -20%
CCCCc1ccc(NC(=O)C(C)CC)cc1 (stereo not drawn)	inconclusive: 22.4 µM [falling, partial curve]	–
CN(C)c1ccc(NC(=O)Oc2ccccc2)cc1	inconclusive: 25.1 µM [falling, partial curve]	–
O=C(COC(=O)COc1ccccc1F)Nc1ccc(Cl)cn1	–	inactive: 2.58%
Cc1nc2ccc(-c3nc4cc(N)ccc4o3)cc2[nH]1	inconclusive: 28.2 µM [falling, single point]	–
O=C1C2C3C=CC(C3)C2C(=O)N1CCCCCCN1C(=O)C2C3C=CC(C3)C2C1=O (stereo not drawn)	inconclusive: 22.4 µM [falling, single point]	–
Nc1ccc(N2CCCCCC2)cc1	inconclusive: 20 µM [falling, partial curve]	–
Cc1ccc(SCCSc2nc(C)cc(=O)[nH]2)cc1	–	inactive: 2.72%
CC(=O)c1cccc(NC(=O)c2ccc(N(C)S(=O)(=O)c3ccc(C)cc3)cc2)c1	–	inactive: -9.54%
Cc1occc1-c1n[nH]c(=S)n1-c1ccccc1	inconclusive: 31.6 µM [falling, single point]	–
CCOC(=O)c1ccc(NCc2nc3ccccc3n2C)cc1	inconclusive: 15.8 µM [falling, partial curve]	–
C/C(=N\Nc1nc2ccccc2[nH]1)c1cc2ccccc2o1	inconclusive: 15.8 µM [falling, partial curve]	–
CCn1cc(C(=O)O)c(=O)c2cnc(N3CCN(C(=S)NC(=O)c4ccc(Br)cc4)CC3)nc21	inconclusive: 8.91 µM [falling, partial curve]	–
Cc1cnc(C(=O)Nc2ccc(F)cc2)cn1	inconclusive: 25.1 µM [falling, partial curve]	–
O=C(COC(=O)c1cccnc1Cl)c1ccccc1	inconclusive: 22.4 µM [falling, partial curve]	–

Compound	Potency	activity change, negative = inhibition
CCNC(=O)COC(=O)c1cc(-c2ccc(OC)cc2)nc2ccccc12	inconclusive: 15.8 µM [falling, partial curve]	–
O=C(C=C1SCCS1)/C=C/c1ccco1	inconclusive: 15.8 µM [falling, partial curve]	–
COc1ccc(C(=O)Nc2cc(C)c(NC(=O)c3ccccn3)cn2)cc1	–	inactive: -11.6%
COCCNC(=O)c1ccccc1NC(=O)Nc1ccccc1	inconclusive: 15.8 µM [falling, partial curve]	–
CC1CCN(C(=O)C2CC(c3ccc(F)cc3)=NO2)CC1 (stereo not drawn)	–	inactive: 0.689%
Cc1ccc2nc(SCC(=O)Nc3cc([N+](=O)[O-])ccc3F)[nH]c2c1	–	inactive: -1.54%
COc1cccc(C(=O)NN2CC(O)=C(c3nc4ccccc4s3)C2=N)c1	–	inactive: 1.61%
CCN1C(=O)/C(=C/C=C2\N(CC)c3cc(S(=O)(=O)N(C)C)ccc3N2c2ccccc2)SC1=S	inconclusive: 31.6 µM [falling, single point]	–
O=C(Nc1ccccc1)Nc1ccc(C(=O)N2CCOCC2)cc1	active: 12.6 µM	–
CC1(C)CCN2CCC(C)(C)c3c(O)ccc1c32	inconclusive: 31.6 µM [falling, partial curve]	–
CCCCn1c(-c2cc(Cl)ccc2OC)n[nH]c1=S	active: 12.6 µM	–
Cc1cc(NC(=O)c2ccccc2F)ncc1NC(=O)c1cccs1	inconclusive: 25.1 µM [falling, partial curve]	–
COc1cccc(C(=O)c2cc3ccc(O)cc3oc2=O)c1	active: 14.1 µM	–
CCOc1cccc(-c2nc3cc(C)ccc3o2)c1	inconclusive: 35.5 µM [falling, single point]	–
Cc1cccc(/N=C/c2sc3ccccc3c2O)n1	inconclusive: 25.1 µM [falling, partial curve]	–
Cc1csc(NC(=O)c2cccs2)n1	inconclusive: 28.2 µM [falling, single point]	–
COCCCN1C(=O)C2C(C(=O)Nc3cc(C)cc(C)c3)C3C=CC2(O3)C1C(=O)NC1CCCCC1 (stereo not drawn)	–	inactive: -4.85%
O=C(O)CSc1nnc(-c2cccs2)n1-c1ccc(Cl)cc1	inconclusive: 17.8 µM [falling, partial curve]	–
CC(c1n[nH]c(=S)n1-c1ccc(Cl)cc1)N(C)C (stereo not drawn)	inconclusive: 10 µM [falling, partial curve]	–
COc1cc(C(=O)NC(=S)Nc2ccccc2N2CCOCC2)cc(OC)c1OC	inconclusive: 8.91 µM [falling, full curve]	–
Fc1ccccc1-c1nc(-c2ccccc2)no1	active: 11.2 µM	–
C(=N\Nc1nc2ccccc2[nH]1)/c1ccccc1	–	inactive: -16.4%
COCc1ccc([C@@H]2C[C@H]3CN(Cc4ccccc4C)C(=O)[C@]34CCCN24)o1	–	inactive: 2.23%
COc1ccc(/C=N/NC(=O)c2ccoc2C)cc1O	inconclusive: 17.8 µM [falling, partial curve]	–
COc1cccc(NC(=O)C(=O)N2CCOCC2)c1	inconclusive: 28.2 µM [falling, single point]	–
O=C(CSc1ccccn1)N1CCc2ccccc21	inconclusive: 39.8 µM [falling, single point]	–
